Assay results reported in publication PMC5681435, “Differential Regulation of G1 CDK Complexes by the Hsp90-Cdc37 Chaperone System” (Cell Reports, 2017).
Positions count from the first letter of the chain named.

B1: p16D84N: p16INK4a mutant in which D84 is mutated to an asparagine (protein)
chain: MEPAAGSSMEPSADWLATAAARGRVEEVRALLEAGALPNAPNSYGRRPIQVMMMGSARVAELLLLHGAEPNCADPATLTRPVHNAAREGFLDTLVVLHRAGARLDVRDAWGRLPVDLAEELGHRDVARYLRAAAGGTRGSNHARIDAAEGPSDIPD
B2: p16M53I: p16INK4a mutant in which M53 is mutated to an isoleucine (protein)
chain: B1 chain with M53I, N84D
B3: p16D108N: p16INK4a mutant, D108 mutated to an asparagine (protein)
chain: B1 chain with N84D, D108N

Each molecule was assayed against CDK6-Cdc37 complex (Homo sapiens, UniProt Q00534). Conditions: HTRF competition, 6 nM GSTCDK6, 500 nM C-Avi Cdc37.
Sequence of CDK6-Cdc37 complex (Q00534 whole entry, one chain of several): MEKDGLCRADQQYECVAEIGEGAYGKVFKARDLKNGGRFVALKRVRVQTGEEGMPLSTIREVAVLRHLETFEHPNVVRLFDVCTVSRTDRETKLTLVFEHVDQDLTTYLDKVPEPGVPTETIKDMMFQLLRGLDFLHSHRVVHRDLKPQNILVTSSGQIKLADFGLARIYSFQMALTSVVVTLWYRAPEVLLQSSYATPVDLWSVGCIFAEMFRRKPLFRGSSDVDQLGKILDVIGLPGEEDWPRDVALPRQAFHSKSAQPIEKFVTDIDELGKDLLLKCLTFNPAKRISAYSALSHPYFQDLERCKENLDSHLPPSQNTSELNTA
For B1, the “Displacement of Cdc37 from CDK6-Cdc37 complex (in words)” value (“Displacement of Cdc37” for short) was “unable to displace CDK4 or CDK6 from Cdc37”. With B2 the “Displacement of Cdc37” value was “as effective as authentic p16INK4a”. For B3, the “Displacement of Cdc37” value was “as effective as wild-type p16INK4a”.
